Reference: PMC5777823 (eLife, 2017)

Target: T1, CENP-LN complex (human, UniProt Q8N0S6; Q96H22)
T1 construct: CENP-L, human; CENP-N, human, 339 residues; Form used in SEC, named without GST; The methods say that eluted GST fusions were concentrated either alone or with GST-tagged 3C protease; the tag was probably cleaved for SEC; also called CENP-L:CENP-N; CENP-NL; source: Tnao38 insect cells (baculovirus, co-expressed), purified (GSH-Sepharose, Superdex 200)
Test: SEC; analytical SEC on Superdex 200 5/150 or Superose 6 5/150; 20 mM HEPES pH 7.5, 300 mM NaCl, 2.5% glycerol, 2 mM TCEP, 4°C; proteins mixed at 6 μM, one hour on ice; fractions by SDS-PAGE and Coomassie
Details: both partners purified

T1 sequence (Q8N0S6 whole entry, chain 1 of 2, the tested form may be a part): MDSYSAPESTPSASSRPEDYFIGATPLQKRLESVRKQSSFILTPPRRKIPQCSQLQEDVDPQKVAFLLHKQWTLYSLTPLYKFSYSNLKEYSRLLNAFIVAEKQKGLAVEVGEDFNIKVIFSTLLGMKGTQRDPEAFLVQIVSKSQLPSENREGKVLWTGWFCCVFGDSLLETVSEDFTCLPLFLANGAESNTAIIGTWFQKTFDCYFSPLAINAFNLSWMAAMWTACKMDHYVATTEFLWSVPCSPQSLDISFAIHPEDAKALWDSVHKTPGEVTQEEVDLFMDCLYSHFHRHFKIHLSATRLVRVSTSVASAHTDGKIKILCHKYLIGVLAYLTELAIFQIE
T1 sequence (Q96H22 whole entry, chain 2 of 2, further chain, the tested form may be a part): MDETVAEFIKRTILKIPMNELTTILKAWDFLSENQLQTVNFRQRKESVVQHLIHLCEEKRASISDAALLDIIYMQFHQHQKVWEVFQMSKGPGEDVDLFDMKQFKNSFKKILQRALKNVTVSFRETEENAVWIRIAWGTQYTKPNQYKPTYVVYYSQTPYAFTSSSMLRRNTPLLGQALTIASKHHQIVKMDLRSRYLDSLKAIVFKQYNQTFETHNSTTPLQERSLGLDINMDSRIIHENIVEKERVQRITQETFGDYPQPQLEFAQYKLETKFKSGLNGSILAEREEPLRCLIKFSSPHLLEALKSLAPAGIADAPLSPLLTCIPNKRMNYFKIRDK

binding result: binds
B1: CENP-C^[…] (domain or fragment)
chain: not shown
notes: pGEX-6P-2rbs; named without GST in the assays; source: bacteria, purified as described (Klare et al., 2015)
